Laboratory results from PubChem BioAssay AID2675 (National Center for Advancing Translational Sciences (NCATS), 2010).
Among all 280,000 compounds or so, about 100 (0.036%) were called active. This list was built around the results that the source calls inconclusive (neither active nor inactive); the mix of calls is not that of the screen. The call rests on the fitted dose curve; in most records, active means well fitted inhibition curve with a large enough effect in the signal ratio, with a control signal flat (not every such curve was filed as active); inconclusive means small, poorly fitted or top-dose-only effect, or effect the other way, or a change in a side signal; inactive means no such curve, though single readings can be large or run the other way; the % refers to the signal ratio. A potency beside an inconclusive call is a rough fit, not a confirmed value. A note “side channel” means that the fit belongs to a control or component signal, not to the main read-out.

Biological target: Muscleblind-like protein 1 (Homo sapiens) (UniProt Q9NR56)
Assay: qHTS Assay for Inhibitors of MBNL1-poly(CUG) RNA binding
Conditions: TR-FRET MBNL1-His/biotin-(CUG)12 binding, 665/545 ratio; activity change, negative = inhibition: at 57.5 µM (top of the series)
Outline: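 Compound titration spanned 92 nM–58 uM against the MBNL1-His/biotin-(CUG)12 complex. After 60 min at room temperature with 5 nM streptavidin-XL665 and 0.055 ng/ul terbium anti-His, ratiometric 665/545 nm emission (Ex 340 nm) normalized to controls.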
On the % scale 0 is the no-effect control and ±100 the full control effect; potency means the concentration at half of the fitted maximal effect; tags describe the fitted curve by direction and shape or compound fluorescence and quenching.

UniProt Q9NR56, sequence (Q9NR56 whole entry, looked up): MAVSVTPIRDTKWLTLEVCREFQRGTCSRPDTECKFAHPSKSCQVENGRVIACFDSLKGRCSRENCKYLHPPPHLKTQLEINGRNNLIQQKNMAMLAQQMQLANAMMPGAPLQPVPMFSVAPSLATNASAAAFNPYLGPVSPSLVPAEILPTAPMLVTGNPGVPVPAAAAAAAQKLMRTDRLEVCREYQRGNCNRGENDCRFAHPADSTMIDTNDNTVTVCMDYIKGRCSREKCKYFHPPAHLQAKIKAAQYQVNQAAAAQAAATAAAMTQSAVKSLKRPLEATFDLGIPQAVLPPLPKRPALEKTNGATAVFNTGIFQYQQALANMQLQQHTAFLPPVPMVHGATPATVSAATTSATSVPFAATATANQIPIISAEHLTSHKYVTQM

SMILES	activity change, negative = inhibition	Potency
O=[N+]([O-])c1cc(Cl)cc(/C=N/Nc2nc3ccccc3s2)c1O	inactive: 3.17%	–
O=C(CCNS(=O)(=O)c1cccc2nonc12)NC1CCCCCC1	–	inconclusive: 15.8 µM [quencher, side channel, partial curve]
COc1ccccc1CNC(=O)C1CCCN(S(=O)(=O)c2cccc3nsnc23)C1 (stereo not drawn)	–	inconclusive: 14.1 µM [quencher, side channel, partial curve]
CC1(C)Cc2c(c(-c3ccco3)nc3sc4c(NCCCO)ncnc4c23)CO1	inactive: 11.7%	–
O=[N+]([O-])c1ccc(N2CCN(CCO)CC2)cc1Sc1ccccn1	–	inconclusive: 12.6 µM [quencher, side channel, partial curve]
COc1cccc(-c2cnc(NCc3cc(Cl)ccc3O)n2C)c1	inactive: 5.5%	–
COc1ccc(-c2csc(NC(=O)c3cccs3)c2C(=O)O)cc1OC	–	inconclusive: 28.2 µM [quencher, side channel, partial curve]
COc1ccc(-c2cc3ccc(OCC(=O)NCC4CCC(C(=O)O)CC4)cc3oc2=O)cc1 (stereo not drawn)	–	inconclusive: 2.82 µM [quencher, side channel, full curve]
Cc1ccc(S(=O)(=O)N2CCN(S(=O)(=O)c3ccc4c(c3)OCCO4)CC2)cc1	inactive: 6.42%	–
Cc1ccccc1C(=O)Nc1cccc(C#N)c1	–	inconclusive: 39.8 µM [quencher, side channel, single point]
c1cncc(CSc2nnc3ccc(-c4cccs4)nn23)c1	–	inconclusive: 11.2 µM [quencher, side channel, partial curve]
NS(=O)(=O)c1cc(C(=O)N=Nc2c(O)[nH]c3ccccc23)ccc1Cl	–	inconclusive: 1.26 µM [quencher, side channel, full curve, poor fit]
Cc1ccc(C(=O)Nc2ccc(C)c(S(=O)(=O)Nc3ccccc3Cl)c2)s1	inactive: -8.28%	–
O=C(CSc1cccc[n+]1[O-])N1CCCCCC1	inactive: -1.92%	–
CCS(=O)(=O)n1nc(-c2ccccc2)nc1N	–	inconclusive: 7.94 µM [quencher, side channel, single point]
O=C(OCC(=O)N1CCc2ccccc21)C1=COCCO1	–	inconclusive: 4.47 µM [quencher, side channel, single point]
O=C(Nc1ccc(Cl)cc1)c1ccc(-c2ccccn2)s1	–	inconclusive: 39.8 µM [fluorescent, side channel, single point]
COc1cccc(NC(=O)C(=O)c2cn(CC(=O)N3CCOCC3)c3ccccc23)c1	–	inconclusive: 25.1 µM [quencher, side channel, single point]
